Data: PubChem BioAssay AID1468 (National Center for Advancing Translational Sciences (NCATS), 2008)
The campaign covered roughly 280,000 compounds. About 1,100 (0.39%) were called active. This list was built around the results that the source calls inconclusive (neither active nor inactive); the mix of calls is not that of the screen. Calls follow the shape of the dose curve; as a rule, active = well fitted inhibition curve with a large enough effect; inconclusive = small, poorly fitted or top-dose-only effect, or effect the other way; inactive = flat fitted curve, though single readings scatter. No potency is given beside an inconclusive call; the fits are too rough.
% is scaled to controls: 0 for no effect and ±100 for the full control effect; potency is read from the fitted curve at half-maximal effect; tags tell the direction and shape of the fitted curve.
Also: nearly all actives have a fitted effect of over 55% in size.

Each compound was assayed against Microtubule-associated protein tau (Homo sapiens) (UniProt P10636) (assay: qHTS for Inhibitors of Tau Fibril Formation, Fluorescence Polarization). Settings: K18 P301L tau heparin fibrillization, Alexa594 FP, 6 h; series mostly up to 57.7 µM.
Chain of UniProt P10636 (P10636 whole entry, looked up): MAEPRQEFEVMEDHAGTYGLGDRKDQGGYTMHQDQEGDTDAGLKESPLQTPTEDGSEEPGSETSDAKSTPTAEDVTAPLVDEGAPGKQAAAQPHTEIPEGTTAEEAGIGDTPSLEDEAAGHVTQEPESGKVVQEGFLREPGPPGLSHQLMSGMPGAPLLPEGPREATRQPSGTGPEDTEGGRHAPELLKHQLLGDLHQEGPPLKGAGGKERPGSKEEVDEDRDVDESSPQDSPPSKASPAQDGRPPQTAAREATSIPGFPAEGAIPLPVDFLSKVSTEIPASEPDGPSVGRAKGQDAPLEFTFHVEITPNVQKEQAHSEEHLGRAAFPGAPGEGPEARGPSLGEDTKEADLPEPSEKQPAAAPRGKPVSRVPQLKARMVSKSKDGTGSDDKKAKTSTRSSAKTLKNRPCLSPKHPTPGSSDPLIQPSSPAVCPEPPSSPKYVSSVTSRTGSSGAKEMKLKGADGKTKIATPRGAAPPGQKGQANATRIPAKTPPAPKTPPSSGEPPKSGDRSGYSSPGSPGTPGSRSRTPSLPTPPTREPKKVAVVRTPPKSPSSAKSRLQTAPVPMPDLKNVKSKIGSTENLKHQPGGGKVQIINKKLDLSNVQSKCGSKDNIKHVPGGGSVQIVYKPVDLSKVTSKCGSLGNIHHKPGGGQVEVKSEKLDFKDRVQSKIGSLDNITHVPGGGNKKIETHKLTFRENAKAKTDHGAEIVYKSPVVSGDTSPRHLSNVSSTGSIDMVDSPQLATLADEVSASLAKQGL
Method in brief: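 FP of Alexa 594-tau after heparin (20 uM) induction. Substrate: human K18 P301L, 15 uM unlabeled, 0.24 uM labeled. Buffer 100 mM sodium acetate pH 7. 6 hr, 37 C.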
With CCSc1oc(-c2ccco2)nc1S(=O)(=O)c1ccc(F)cc1 the Potency was “inactive”.
For Cc1cc(C)n(-c2nc(C)c(C)c(=O)n2CC(=O)Nc2ccc(Cl)c(Cl)c2)n1, the Potency was inconclusive [inhibitor, single point].
With Cn1c(=O)c2[nH]c(N=Nc3ccc(N)cc3N)nc2n(C)c1=O the Potency was “inactive”.
For Cc1nc2ccc(S(=O)(=O)Nc3ccc(-c4nc5cccnc5s4)cc3)cc2s1, the Potency was inconclusive [inhibitor, partial curve, poor fit].
With COc1cccc(NC(=O)c2nnn(Cc3ccc(OC)c(Br)c3)c2N)c1 the Potency was inconclusive [inhibitor, single point].
CC(C)c1ccc(O)c(NC(=O)c2cccnc2)c1 was tested, and the Potency was “inactive”.
In the case of CCOC(=O)c1cc(-c2ccccc2)n(CCC(=O)Nc2nc3c(C)cccc3s2)c1C, the Potency is reported as inconclusive [inhibitor, single point].
Cn1ncc2c(Nc3ccc(-c4ccccc4)cc3)ncnc21 was tested, and the Potency was inconclusive [inhibitor, single point].
For Cc1ccc(S(=O)(=O)Cc2ccc(C(=O)NCc3ccc4c(c3)OCO4)o2)cc1, the Potency was “inactive”.
CCN1CCN(c2cc(-c3ccccc3)nc3cc(-c4cccc(F)c4)nn23)CC1 was tested, and the Potency was inconclusive [inhibitor, partial curve].
With COCCNC(=O)Cn1cc(/C=N/NC(=O)c2ccc(Oc3ccc(O)cc3)cc2)c2ccccc21 the Potency was “inactive”.
For Cc1ccc(CNC2=NCCCCC2)n1C, the Potency was inconclusive [inhibitor, single point].
In the case of C=CCNC(=O)CC(=O)N/N=C/c1ccc(F)cc1, the Potency is reported as inconclusive [inhibitor, single point].
In the case of CCOC(=O)C1=C(C)N=c2s/c(=C\c3ccc(OCC(=O)O)cc3)c(=O)n2C1c1ccc(OC(C)C)cc1 (configuration not stated), the Potency is reported as inconclusive [inhibitor, single point].
With COC(=O)Cn1cnc2c(nnn2Cc2ccc(Cl)cc2)c1=O the Potency was “inactive”.
In the case of Cc1cnc(=O)[nH]c1SCC(=O)Nc1nc2ccccc2s1, the Potency is reported as inconclusive [inhibitor, partial curve, poor fit].
In the case of CCN(CC)c1ccc(/C=C2/SC(=O)N(C(C)C)C2=O)o1, the Potency is reported as “inactive”.
COc1ccc(CCNc2ccc(S(=O)(=O)N3CCCC3)cc2[N+](=O)[O-])cc1 was tested, and the Potency was inconclusive [activator, single point].
With COc1cc(OC)cc(C(=O)N2CCN(C(=O)Cc3ccccc3)CC2)c1 the Potency was “inactive”.
Cc1cc(-c2ccc(C)c(S(=O)(=O)Nc3cccc(C#N)c3)c2)on1 was tested, and the Potency was “inactive”.
With COc1ccc(/C=C/C(=O)Nc2ccc(Cl)c(Cl)c2)cc1 the Potency was inconclusive [inhibitor, partial curve].
CC(C)N1CCc2[nH]c(=S)[nH]c(=O)c2C1 was tested, and the Potency was “inactive”.
In the case of O=C(NC1C(=O)NNC1c1ccccc1)c1ccc(F)cc1 (configuration not stated), the Potency is reported as inconclusive [inhibitor, full curve, poor fit].
With C=CC1=C(C)C2=Cc3c(C=C)c(C)c4[n]3[Sn+2][n]3c(c(C)c(CCC(=O)O)c3=CC3=NC(=C4)C(C)=C3CCC(=O)O)=CC1=N2 the Potency was active: 17.8 µM.
In the case of Cc1ccc2c(Cl)cc(Cl)c(OCC(=O)NCc3ccco3)c2n1, the Potency is reported as inconclusive [inhibitor, single point].
O=C(NC(NC(=S)Nc1ccc(Cl)c(Cl)c1)C(Cl)(Cl)Cl)c1ccco1 (configuration not stated) was tested, and the Potency was inconclusive [inhibitor, full curve, poor fit].
For Cc1ccccc1-n1c(Cn2c(=O)sc3ccccc32)nnc1SCC(=O)N1CCOCC1, the Potency was “inactive”.
With COc1ccc(C(=O)Nc2ccc(Oc3nc(C)nc4sc(-c5ccccc5)cc34)cc2)cc1OC the Potency was inconclusive [inhibitor, partial curve].
COc1ccc(N2CCc3c(C)nc4c(OC)cc(OC)cc4c32)cc1 was tested, and the Potency was “inactive”.
With CCOc1ccc(-c2cc(-c3nc(-c4ccc(C)cc4)no3)[nH]n2)cc1 the Potency was inconclusive [inhibitor, full curve, poor fit].
In the case of Cn1c(-c2cccc([N+](=O)[O-])c2)cnc1NCc1cccc([N+](=O)[O-])c1, the Potency is reported as “inactive”.
In the case of CC(=O)c1cccc(NC(=O)C(C)n2c(=O)cc(-c3ccccc3)c3c(C)nn(C)c32)c1 (configuration not stated), the Potency is reported as “inactive”.
O=C(c1ccco1)[C@@H]1[C@@H]2C(=O)N(c3ccc(F)cc3)C(=O)[C@@H]2C2c3ccccc3C=CN21 (some centres not stated) was tested, and the Potency was inconclusive [inhibitor, partial curve].
For CCOc1cccc(OCCCn2c(-c3ccc(Br)cc3)nc3ccccc3c2=O)c1, the Potency was inconclusive [inhibitor, single point].
With CCOC(=O)C1CCN(C(=O)CSc2n[nH]c(-c3ccc(F)cc3)n2)CC1 the Potency was “inactive”.
With COC(=O)N/N=C/c1cn(CC(C)COc2ccccc2)c2ccccc12 (configuration not stated) the Potency was inconclusive [activator, full curve].
With COc1cccc(CNC(=O)c2c(C)oc3nc(C)nc(N4CCOCC4)c23)c1 the Potency was “inactive”.
With CCN(CC)c1ccc(NC(=O)CCCCCN2C(=O)c3ccccc3C2=O)cc1 the Potency was inconclusive [activator, partial curve].
NS(=O)(=O)c1ccc(N/N=C/c2cn(-c3ccccc3)nc2-c2ccccc2)c([N+](=O)[O-])c1 was tested, and the Potency was “inactive”.
With CCCn1c(C(O)c2ccc3c(c2)OCO3)nc2ccccc21 (configuration not stated) the Potency was “inactive”.
For Cc1ccc(Sc2ncccc2COC(=O)Nc2ccccc2)cc1, the Potency was inconclusive [inhibitor, partial curve, poor fit].
In the case of CCOc1cc(C2Nc3ccccc3C(=O)N2c2ccccc2)ccc1O (configuration not stated), the Potency is reported as “inactive”.
In the case of COc1ccc(CCn2c(=O)c3cccnc3n(CC(=O)Nc3ccc(C)cc3C)c2=O)cc1OC, the Potency is reported as “inactive”.
For O=C(Nc1cccc(C(=O)OCc2cc(=O)n3c4c(sc3n2)CCCC4)c1)c1cccc(Cl)c1, the Potency was inconclusive [inhibitor, partial curve, poor fit].
With COc1cccc(NC(=O)Cn2nnc(C(=O)NCCc3ccccc3)c2N)c1 the Potency was inconclusive [inhibitor, single point].
In the case of COc1ccccc1N1CCN(C(=O)c2ccc3nc(-c4ccco4)c(-c4ccco4)nc3c2)CC1, the Potency is reported as “inactive”.
In the case of Cc1nc(CS(=O)(=O)c2ccccc2)cc(N2CCOCC2)n1, the Potency is reported as “inactive”.
COC(=O)CN(c1ccc(OC)cc1OC)S(=O)(=O)c1ccccc1[N+](=O)[O-] was tested, and the activity, negative = inhibition was inactive: -7.75% [at 2.34 µM].
In the case of O=C(CSc1nc2c([nH]c3ccccc32)c(=O)n1-c1ccc(F)cc1)NCc1ccc(F)cc1, the Potency is reported as inconclusive [inhibitor, single point].
With O=C(CCSc1nnc2scc(-c3ccccc3)n12)Nc1nc(-c2ccccc2)ns1 the Potency was inconclusive [inhibitor, full curve, poor fit].
In the case of COc1ccc(-n2cccc2/C=C/[N+](=O)[O-])cc1, the Potency is reported as “inactive”.
With Cc1cc(C)nc(NS(=O)(=O)c2ccc(NC(=O)c3nc(SC(C)C)ncc3Cl)cc2)n1 the Potency was “inactive”.
For CC(/C=C1\SC(=O)N(CCCC(=O)O)C1=O)=C\c1ccccc1, the Potency was “inactive”.
For O=C(CCS(=O)(=O)c1nc(-c2cccs2)cc(C(F)(F)F)n1)Nc1ccc(F)c(Cl)c1, the Potency was inconclusive [inhibitor, full curve, poor fit].
S=C(NCc1ccncc1)Nc1ccc(Cl)c(Cl)c1 was tested, and the Potency was inconclusive [inhibitor, single point].
For Cc1nc(-c2coc3cc(C)c(N=O)c(O)c3/c2=N\N)cs1, the Potency was “inactive”.
With CC(C)(C)c1ccc(-c2nc(N)nc(N)n2)cc1 the activity, negative = inhibition was inactive: 0.655% [at 11.6 µM].
For Cc1cccc(NC(=S)NC2CCCC2)c1, the Potency was “inactive”.
O=C(NC1CCCCC1)N1CCN(c2ncccn2)CC1 was tested, and the Potency was “inactive”.
With CC(=O)c1ccc(N2CCN(c3nc4ccccc4c4nc(-c5cccc(C)c5)nn34)CC2)cc1 the Potency was “inactive”.
Cc1ccc2nc(-c3ccc(NC(=S)NC4CC(C)(C)NC(C)(C)C4)cc3)sc2c1 was tested, and the Potency was active: 11.2 µM.
With N#Cc1c(-c2cccs2)cc(-c2cccs2)[nH]c1=O the Potency was “inactive”.
O=C(COC(=O)Cn1cnc2ccccc2c1=O)Nc1ccc(Cl)c(C(F)(F)F)c1 was tested, and the Potency was inconclusive [inhibitor, full curve].
CCOc1ccc(NC(=O)Cn2c(=O)n(Cc3ccco3)c(=O)c3ccc(C(=O)NC4CCCC4)cc32)cc1 was tested, and the Potency was active: 15.8 µM.
CCc1cc(-c2[nH]ncc2-c2ccc3c(c2)OCO3)c(O)cc1O was tested, and the Potency was inconclusive [activator, partial curve].
With CN(Cc1ccco1)c1nc(-c2ccccc2Cl)nc2ccccc12 the Potency was inconclusive [inhibitor, single point].
For CCCCNC(=O)c1sc(=S)n2c1[nH]c(=O)c1ccccc12, the Potency was inconclusive [activator, partial curve, poor fit].
CO/N=C(\C(=O)N[C@@H]1C(=O)N2C(C(=O)O)=C(COC(C)=O)CS[C@H]12)c1csc(N)n1 was tested, and the Potency was inconclusive [inhibitor, partial curve].
With CC1CCN(S(=O)(=O)c2ccc(C(=O)Nc3ccccc3-c3nc4ccccc4[nH]3)cc2)CC1 the Potency was active: 28.2 µM.
Cc1ccc2nc3ccc(N4CCN(C)CC4)nn3c(=O)c2c1 was tested, and the Potency was “inactive”.
For c1ccc2oc(NC3=NCN(CC4CCCO4)CN3)nc2c1 (configuration not stated), the Potency was inconclusive [inhibitor, single point].
CCc1ccc2oc(-c3cccc(NC(=O)c4cc5ccccc5o4)c3)nc2c1 was tested, and the Potency was inconclusive [inhibitor, partial curve].
